# According to PubChem BioAssay (NCI):
#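 Growth conditions: 96-well plates. Treatment: test compound, 48 hours, 5 concentrations. Analysis: linear interpolation between bracketing concentrations; unreached endpoints set to highest concentration. Here, GI50 denotes the concentration required for 50% inhibition of growth.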 Certain results were filed several times, with different values. They are shown here; other results are not. There may be further records. For some assays here: Records of one sample usually come from different ranges of test concentrations, which the source does not state; a value can be the end of its range. For some assays here: The records of an entry are repeats across runs, samples, wells, individuals or studies. Brackets tell where a record comes from. Letters count within one entry.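 TGI is the concentration that stops growth completely.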
# How the values were obtained:
# Test in all cases: DTP human tumour cell line panel, 48 h
# SF-295 CNS = system: SF-295 CNS
# SF-268 CNS = system: SF-268 CNS
# UACC-257 melanoma = system: UACC-257 melanoma
# DU-145 prostate = system: DU-145 prostate
# CAKI-1 renal = system: CAKI-1 renal
# NCI-H522 lung = system: NCI-H522 lung
# SK-MEL-2 melanoma = system: SK-MEL-2 melanoma
# OVCAR-3 ovarian = system: OVCAR-3 ovarian
# TK-10 renal = system: TK-10 renal
# M14 melanoma = system: M14 melanoma
# SF-539 CNS = system: SF-539 CNS
# MDA-N = system: MDA-N
# OVCAR-5 ovarian = system: OVCAR-5 ovarian
# NCI/ADR-RES ovarian = system: NCI/ADR-RES ovarian
# U251 CNS = system: U251 CNS
# MCF7 breast = system: MCF7 breast
# SK-MEL-5 melanoma = system: SK-MEL-5 melanoma
# K-562 leukemia = system: K-562 leukemia
# NCI-H23 lung = system: NCI-H23 lung
# MDA-MB-435 = system: MDA-MB-435
# OVCAR-4 ovarian = system: OVCAR-4 ovarian
# MALME-3M melanoma = system: MALME-3M melanoma
# NCI-H460 lung = system: NCI-H460 lung
# SK-MEL-28 melanoma = system: SK-MEL-28 melanoma
# RPMI-8226 leukemia = system: RPMI-8226 leukemia
# HS 578T breast = system: HS 578T breast
# T-47D breast = system: T-47D breast
# NCI-H226 lung = system: NCI-H226 lung
# BT-549 breast = system: BT-549 breast
# KM12 colon = system: KM12 colon
# UACC-62 melanoma = system: UACC-62 melanoma
# SR leukemia = system: SR leukemia
# SNB-75 CNS = system: SNB-75 CNS
compound,measurement,setting,value
Cc1ccc(C(=O)N(CCCN)[C@@H](c2nc3cc(Cl)ccc3c(=O)n2Cc2ccccc2)C(C)C)cc1,TGI,SF-295 CNS,"< 10.5 nM [sample A, mean of 2 tests] and 369 nM [sample B, mean of 2 tests]"
same,GI50,SF-268 CNS,"< 10 nM [sample A, mean of 2 tests] and 402 nM [sample B, mean of 2 tests]"
same,GI50,UACC-257 melanoma,"< 10 nM [sample A, mean of 2 tests] and 1.2 µM [sample B, mean of 2 tests]"
same,TGI,DU-145 prostate,"< 10 nM [sample A, 1 test] and 1.33 µM [sample B, mean of 2 tests]"
same,GI50,CAKI-1 renal,"176 nM [sample A, mean of 2 tests] and < 10 nM [sample B, mean of 2 tests]"
same,TGI,NCI-H522 lung,"< 10 nM [sample A, mean of 2 tests] and 1.55 µM [sample B, mean of 2 tests]"
same,TGI,SK-MEL-2 melanoma,"< 10 nM [sample A, 1 test] and 2.27 µM [sample B, mean of 2 tests]"
same,TGI,OVCAR-3 ovarian,"124 nM [sample A, mean of 2 tests] and 1.58 µM [sample B, mean of 2 tests]"
same,GI50,TK-10 renal,"< 10 nM [sample A, mean of 2 tests] and 1.33 µM [sample B, mean of 2 tests]"
COc1cccc([C@H]2CC(=O)c3cc4c(cc3N2)OCO4)c1,TGI,M14 melanoma,3.04 µM and > 100 µM
same,TGI,SF-539 CNS,884 nM and > 100 µM
same,TGI,MDA-N,345 nM and > 100 µM
same,TGI,OVCAR-5 ovarian,7 µM and > 100 µM
same,TGI,NCI/ADR-RES ovarian,1.75 µM and > 100 µM
CN1CCc2cc3c(cc2C1O)OCO3 (stereo not given),GI50,U251 CNS,"> 100 µM [sample A, 1 test] and 7.85 µM [sample B, mean of 2 tests]"
same,GI50,MCF7 breast,"> 100 µM [sample A, 1 test] and 5.82 µM [sample B, mean of 2 tests]"
same,GI50,SK-MEL-5 melanoma,"> 100 µM [sample A, 1 test] and 568 nM [sample B, mean of 2 tests]"
same,TGI,SK-MEL-5 melanoma,"> 100 µM [sample A, 1 test] and 1.92 µM [sample B, mean of 2 tests]"
same,GI50,K-562 leukemia,"> 100 µM [sample A, 1 test] and 7.54 µM [sample B, mean of 2 tests]"
same,GI50,NCI-H23 lung,"> 100 µM [sample A, 1 test] and 4.9 µM [sample B, mean of 2 tests]"
same,GI50,SF-268 CNS,"> 100 µM [sample A, 1 test] and 9.34 µM [sample B, mean of 2 tests]"
same,GI50,UACC-257 melanoma,"> 100 µM [sample A, 1 test] and 2.84 µM [sample B, mean of 2 tests]"
same,GI50,MDA-MB-435,"> 100 µM [sample A, 1 test] and 2.45 µM [sample B, mean of 2 tests]"
same,GI50,OVCAR-4 ovarian,"> 100 µM [sample A, 1 test] and 3.45 µM [sample B, mean of 2 tests]"
same,GI50,MALME-3M melanoma,"> 100 µM [sample A, 1 test] and 1.82 µM [sample B, mean of 2 tests]"
same,TGI,MALME-3M melanoma,"> 100 µM [sample A, 1 test] and 5.46 µM [sample B, mean of 2 tests]"
same,GI50,NCI-H522 lung,"> 100 µM [sample A, 1 test] and 230 nM [sample B, 1 test]"
same,TGI,NCI-H522 lung,"> 100 µM [sample A, 1 test] and 617 nM [sample B, 1 test]"
same,GI50,NCI-H460 lung,"> 100 µM [sample A, 1 test] and 367 nM [sample B, mean of 2 tests]"
same,TGI,NCI-H460 lung,"> 100 µM [sample A, 1 test] and 1.76 µM [sample B, mean of 2 tests]"
same,GI50,SK-MEL-28 melanoma,"> 100 µM [sample A, 1 test] and 7.71 µM [sample B, mean of 2 tests]"
same,GI50,RPMI-8226 leukemia,"> 100 µM [sample A, 1 test] and 9.61 µM [sample B, mean of 2 tests]"
same,GI50,SK-MEL-2 melanoma,"> 100 µM [sample A, 1 test] and 3.92 µM [sample B, mean of 2 tests]"
same,GI50,OVCAR-3 ovarian,"> 100 µM [sample A, 1 test] and 1.98 µM [sample B, mean of 2 tests]"
same,TGI,OVCAR-3 ovarian,"> 100 µM [sample A, 1 test] and 4.19 µM [sample B, mean of 2 tests]"
same,GI50,HS 578T breast,"> 100 µM [sample A, 1 test] and 8.37 µM [sample B, mean of 2 tests]"
same,GI50,T-47D breast,"> 100 µM [sample A, 1 test] and 2.68 µM [sample B, 1 test]"
same,TGI,T-47D breast,"> 100 µM [sample A, 1 test] and 7.75 µM [sample B, 1 test]"
same,GI50,NCI-H226 lung,"> 100 µM [sample A, 1 test] and 2.53 µM [sample B, 1 test]"
same,TGI,NCI-H226 lung,"> 100 µM [sample A, 1 test] and 5.75 µM [sample B, 1 test]"
same,GI50,BT-549 breast,"> 100 µM [sample A, 1 test] and 210 nM [sample B, mean of 2 tests]"
same,TGI,BT-549 breast,"> 100 µM [sample A, 1 test] and 436 nM [sample B, mean of 2 tests]"
same,GI50,KM12 colon,"> 100 µM [sample A, 1 test] and 8.21 µM [sample B, mean of 2 tests]"
same,GI50,UACC-62 melanoma,"> 100 µM [sample A, 1 test] and 1.66 µM [sample B, 1 test]"
same,TGI,UACC-62 melanoma,"> 100 µM [sample A, 1 test] and 4.87 µM [sample B, 1 test]"
same,GI50,SR leukemia,"> 100 µM [sample A, 1 test] and 3.31 µM [sample B, mean of 2 tests]"
same,GI50,SNB-75 CNS,"> 100 µM [sample A, 1 test] and 4.33 µM [sample B, mean of 2 tests]"
CC(C)[C@](O)(c1ccc2cc(OC(F)F)c(OC(F)F)cc2c1)c1cn[nH]n1,GI50,MCF7 breast,"26 nM [sample A, 1 test] and 16.5 µM [sample B, 1 test]"
Nc1ccn(C2OC(CO)C(O)C2F)c(=O)n1 (stereo not given),GI50,NCI/ADR-RES ovarian,99.5 µM and > 5 mM
CCCC(=O)O,TGI,RPMI-8226 leukemia,989 µM and > 18.7 mM
